Measurements taken from publication PMC10652611 (Cell & Bioscience, 2023).
Results are given in words; binding and its absence hold for the method and conditions named. Binding seen in cells or lysates may run through a third protein. Some results given as binding are weak or reduced against the parent protein; the word gives no strength. For some of these results: Tags and fused reporters may be left off the sequences shown.

Chains of the proteins cited; added tags and fusions are not shown.
UniProt P25103: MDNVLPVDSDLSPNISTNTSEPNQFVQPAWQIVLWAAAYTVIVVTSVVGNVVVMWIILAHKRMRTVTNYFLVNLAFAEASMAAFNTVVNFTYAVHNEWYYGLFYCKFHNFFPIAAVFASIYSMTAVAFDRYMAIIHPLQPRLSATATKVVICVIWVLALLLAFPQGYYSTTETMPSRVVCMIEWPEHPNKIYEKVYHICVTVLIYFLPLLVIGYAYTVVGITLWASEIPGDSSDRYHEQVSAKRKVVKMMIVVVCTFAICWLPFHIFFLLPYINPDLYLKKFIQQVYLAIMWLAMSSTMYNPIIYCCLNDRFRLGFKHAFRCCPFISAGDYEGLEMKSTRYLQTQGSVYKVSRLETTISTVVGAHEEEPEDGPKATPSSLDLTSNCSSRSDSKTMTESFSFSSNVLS
UniProt P49407: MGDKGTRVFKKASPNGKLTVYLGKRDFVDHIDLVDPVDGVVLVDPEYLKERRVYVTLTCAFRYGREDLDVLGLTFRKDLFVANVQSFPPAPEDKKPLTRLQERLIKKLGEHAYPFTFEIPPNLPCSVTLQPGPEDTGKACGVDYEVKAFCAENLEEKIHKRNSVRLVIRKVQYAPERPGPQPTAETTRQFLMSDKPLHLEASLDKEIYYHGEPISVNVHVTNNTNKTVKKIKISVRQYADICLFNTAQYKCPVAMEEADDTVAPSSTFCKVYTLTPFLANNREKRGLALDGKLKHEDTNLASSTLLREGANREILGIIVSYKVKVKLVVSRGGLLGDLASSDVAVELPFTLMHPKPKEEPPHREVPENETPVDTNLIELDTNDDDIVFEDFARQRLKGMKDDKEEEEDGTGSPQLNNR

Key:
[1] = biological target: Neurokinin-1 receptor, FLAG- or HA-tagged (UniProt P25103); test: co-IP; HEK293 cells co-expressing FLAG- and HA-tagged receptors; lysis in 150 mM NaCl, 50 mM Tris-HCl pH 7.5, 10 mM KCl, 1% Triton-X100, 10 mM NaF; anti-FLAG agarose 2 h at 4 °C; precipitates on SDS-PAGE without boiling; blot with anti-HA
[2] = biological target: T1, Neurokinin-3 receptor, FLAG- or HA-tagged (UniProt P29371); test: as above
T1 sequence: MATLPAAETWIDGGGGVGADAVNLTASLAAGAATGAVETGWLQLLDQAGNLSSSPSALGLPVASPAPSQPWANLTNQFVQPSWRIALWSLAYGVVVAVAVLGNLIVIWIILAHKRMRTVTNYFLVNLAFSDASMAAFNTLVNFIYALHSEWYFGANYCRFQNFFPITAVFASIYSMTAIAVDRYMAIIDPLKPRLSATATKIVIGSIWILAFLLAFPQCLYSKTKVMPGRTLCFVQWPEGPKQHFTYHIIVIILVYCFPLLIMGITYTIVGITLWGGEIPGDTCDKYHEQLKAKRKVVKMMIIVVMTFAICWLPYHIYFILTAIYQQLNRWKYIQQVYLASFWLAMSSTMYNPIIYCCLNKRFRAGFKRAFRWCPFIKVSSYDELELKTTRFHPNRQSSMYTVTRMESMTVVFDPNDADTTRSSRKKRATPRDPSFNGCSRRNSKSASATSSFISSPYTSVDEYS

[3] = biological target: Neurokinin-1 receptor, C-terminal SmBiT- or LgBiT-tagged (UniProt P25103); test: split reporter; NanoBiT; HEK293 cells co-expressing C-terminal SmBiT- and LgBiT-tagged NKs, 50 ng of each plasmid, luminescence in Opti-MEM at room temperature, compared with vector
[4] = biological target: Neurokinin-1 receptor, C-terminal SmBiT- or LgBiT-tagged (UniProt P25103); test: split reporter; NanoBiT; HEK293 cells expressing NK1-SmBiT and β-arrestin1-LgBiT, pretreated with 1 μM aprepitant for 30 min, then 1 μM SP or 10 nM NKA
[5] = biological target: Neurokinin-1 receptor, C-terminal SmBiT- or LgBiT-tagged (UniProt P25103); test: split reporter; NanoBiT; HEK293 cells expressing a NanoBiT-tagged NK and NanoBiT-tagged β-arrestin1, stimulated with SP, NKA or NKB, luminescence in real time; in some experiments with untagged NK1 or NK2 co-expressed
[6] = biological target: Neurokinin-2 receptor, C-terminal SmBiT- or LgBiT-tagged (UniProt P21452); test: as above
[7] = biological target: Neurokinin-2 receptor, C-terminal SmBiT- or LgBiT-tagged (UniProt P21452); test: split reporter; NanoBiT; HEK293 cells co-expressing C-terminal SmBiT- and LgBiT-tagged NKs, 50 ng of each plasmid, luminescence in Opti-MEM at room temperature, compared with vector

“Neurokinin-2 receptor, FLAG- or HA-tagged (from UniProt P21452 1-398)” was tested, and the binding [1] was “binds” and the binding [2] was “no binding”.

In the case of “Neurokinin-1 receptor, C-terminal SmBiT- or LgBiT-tagged (from UniProt P25103 1-407)”, the binding [3] is reported as “binds”.

With “β-arrestin1-LgBiT (from UniProt P49407 1-418)” the binding [4] was “no binding (condition: with 1 μM aprepitant)” and the binding [5] was “binds”.

For “β-arrestin1-SmBiT (from UniProt P49407 1-418)”, the binding [6] was “binds”.

With “Neurokinin-1 receptor, FLAG- or HA-tagged (from UniProt P25103 1-407)” the binding [2] was “no binding”.

B1: Neurokinin-2 receptor, C-terminal SmBiT- or LgBiT-tagged (receptor, UniProt P21452 1-398, looked up)
chain: MGTCDIVTEANISSGPESNTTGITAFSMPSWQLALWATAYLALVLVAVTGNAIVIWIILAHRRMRTVTNYFIVNLALADLCMAAFNAAFNFVYASHNIWYFGRAFCYFQNLFPITAMFVSIYSMTAIAADRYMAIVHPFQPRLSAPSTKAVIAGIWLVALALASPQCFYSTVTMDQGATKCVVAWPEDSGGKTLLLYHLVVIALIYFLPLAVMFVAYSVIGLTLWRRAVPGHQAHGANLRHLQAMKKFVKTMVLVVLTFAICWLPYHLYFILGSFQEDIYCHKFIQQVYLALFWLAMSSTMYNPIIYCCLNHRFRSGFRLAFRCCPWVTPTKEDKLELTPTTSLSTRVNRCHTKETLFMAGDTAPSEATSGEAGRPQDGSGLWFGYGLLAPTKTHVEI
With B1 the binding [7] was “binds” and the binding [3] was “binds”.

B2: Neurokinin-3 receptor, FLAG- or HA-tagged (receptor, UniProt P29371 1-465)
chain: T1 sequence
In the case of B2, the binding [2] is reported as “binds”.
